# From PubChem BioAssay AID504333 (National Center for Advancing Translational Sciences (NCATS), 2011)
# In all, about 360,000 compounds went through this assay and about 16,000 (4.4%) were called active. Inconclusive results, whose numbers are uncertain, are shown with a selection of clear calls. The call rests on the fitted dose curve; in most records, active means well fitted inhibition curve with a large enough effect; inconclusive means small, poorly fitted or top-dose-only effect; inactive means no such curve, though single readings can be large or run the other way. Potencies beside an inconclusive call are fits to weak or partial responses and may not hold up. Some compounds were tested as several samples or in several runs, with calls that do not always agree.
# Biological target: Bromodomain adjacent to zinc finger domain protein 2B (Homo sapiens) (UniProt Q9UIF8)
# Experiment: qHTS Assay for Inhibitors of BAZ2B; further: nearly all actives have a fitted effect of over 60% in size
# Conditions: AlphaScreen BAZ2B-H3K14Ac peptide displacement; series mostly up to 114 µM
# Procedure, shortened: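 Inhibition is scored as reduced AlphaScreen emission. The BAZ2B/b-H3(5-23)K14Ac complex (50 nM each) in PBS pH 7.4, 0.01% Tween-20 meets compound (up to 110 uM) for 30 min at RT before bead addition.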
# Potency means the concentration at half of the fitted maximal effect; tags describe the fitted curve by direction and shape.
# UniProt Q9UIF8, sequence (Q9UIF8 whole entry, looked up, the tested form may be a part): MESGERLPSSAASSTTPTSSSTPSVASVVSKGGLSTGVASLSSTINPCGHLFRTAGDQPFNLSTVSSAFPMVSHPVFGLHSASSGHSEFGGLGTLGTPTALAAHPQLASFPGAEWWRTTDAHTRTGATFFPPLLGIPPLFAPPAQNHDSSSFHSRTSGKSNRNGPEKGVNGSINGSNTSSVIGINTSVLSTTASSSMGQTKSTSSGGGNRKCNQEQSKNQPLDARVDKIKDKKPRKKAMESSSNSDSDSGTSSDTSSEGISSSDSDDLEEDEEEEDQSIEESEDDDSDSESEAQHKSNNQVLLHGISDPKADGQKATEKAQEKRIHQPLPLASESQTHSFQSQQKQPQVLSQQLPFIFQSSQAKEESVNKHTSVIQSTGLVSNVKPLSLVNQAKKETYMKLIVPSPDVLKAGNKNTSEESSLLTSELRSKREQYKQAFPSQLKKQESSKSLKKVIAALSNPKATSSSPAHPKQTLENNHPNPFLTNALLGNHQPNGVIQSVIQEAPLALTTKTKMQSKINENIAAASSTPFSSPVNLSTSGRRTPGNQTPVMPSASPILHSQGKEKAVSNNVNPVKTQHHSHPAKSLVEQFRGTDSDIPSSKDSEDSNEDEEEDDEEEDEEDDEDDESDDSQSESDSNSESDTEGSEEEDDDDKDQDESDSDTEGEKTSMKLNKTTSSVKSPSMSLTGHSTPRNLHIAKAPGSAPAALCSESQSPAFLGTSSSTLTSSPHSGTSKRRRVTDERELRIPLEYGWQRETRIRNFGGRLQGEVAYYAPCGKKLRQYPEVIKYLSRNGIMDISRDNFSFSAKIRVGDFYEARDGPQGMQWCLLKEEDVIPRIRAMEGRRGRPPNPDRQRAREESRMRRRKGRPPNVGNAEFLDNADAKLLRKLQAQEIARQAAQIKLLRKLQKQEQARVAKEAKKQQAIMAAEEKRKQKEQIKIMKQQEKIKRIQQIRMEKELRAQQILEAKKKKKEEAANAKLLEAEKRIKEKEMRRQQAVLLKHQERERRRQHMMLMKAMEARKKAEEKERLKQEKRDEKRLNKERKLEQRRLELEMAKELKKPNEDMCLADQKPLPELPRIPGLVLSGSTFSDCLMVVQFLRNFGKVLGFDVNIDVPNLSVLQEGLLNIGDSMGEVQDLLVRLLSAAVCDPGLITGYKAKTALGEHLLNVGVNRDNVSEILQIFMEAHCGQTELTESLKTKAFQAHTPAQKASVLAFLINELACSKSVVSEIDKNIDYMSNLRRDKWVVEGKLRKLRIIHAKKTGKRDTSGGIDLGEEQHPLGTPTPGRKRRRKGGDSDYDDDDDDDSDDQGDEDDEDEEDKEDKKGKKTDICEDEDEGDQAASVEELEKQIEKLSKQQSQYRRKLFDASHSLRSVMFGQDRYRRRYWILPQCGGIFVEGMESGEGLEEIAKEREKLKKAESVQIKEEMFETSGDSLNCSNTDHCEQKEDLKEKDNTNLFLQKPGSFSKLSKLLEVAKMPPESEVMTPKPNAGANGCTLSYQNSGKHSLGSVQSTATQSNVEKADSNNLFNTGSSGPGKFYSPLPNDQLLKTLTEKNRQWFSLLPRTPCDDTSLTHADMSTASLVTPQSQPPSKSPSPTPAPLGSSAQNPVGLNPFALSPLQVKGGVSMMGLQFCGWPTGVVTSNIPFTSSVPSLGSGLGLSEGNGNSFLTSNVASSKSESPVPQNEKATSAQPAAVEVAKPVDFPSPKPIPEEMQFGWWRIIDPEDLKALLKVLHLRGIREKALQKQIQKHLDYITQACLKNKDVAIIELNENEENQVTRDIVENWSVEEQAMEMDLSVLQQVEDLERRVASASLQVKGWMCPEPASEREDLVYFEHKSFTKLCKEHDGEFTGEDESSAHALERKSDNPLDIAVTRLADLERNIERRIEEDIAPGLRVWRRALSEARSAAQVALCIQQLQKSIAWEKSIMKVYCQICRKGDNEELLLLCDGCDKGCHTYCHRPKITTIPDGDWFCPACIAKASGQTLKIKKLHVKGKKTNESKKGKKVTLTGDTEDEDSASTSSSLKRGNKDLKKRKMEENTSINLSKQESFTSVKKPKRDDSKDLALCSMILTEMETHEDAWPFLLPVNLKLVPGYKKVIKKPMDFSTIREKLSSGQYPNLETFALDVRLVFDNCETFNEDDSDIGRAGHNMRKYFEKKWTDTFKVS
row,SMILES,Potency
1,CCN(CCCNC(=O)C1CCC(=O)N1C(C)C)c1cccc(C)c1 (centres undefined),"inconclusive: 7.08 µM [inhibitor, single point]"
2,CC1=C(C(=O)N2CCN(c3cccc(C)c3C)CC2)C2(CCCCC2)OC1=O,active: 79.4 µM
3,NNC(=O)CN1C(c2ccc(Br)cc2)=Nc2ccc(Br)cc2C1c1ccccc1 (centres undefined),"inconclusive: 44.7 µM [inhibitor, partial curve]"
4,COc1ccc(-c2noc(CN(C(C)C)S(=O)(=O)c3ccc(Br)cc3)n2)cc1,inactive
5,COc1ccc(-n2ncc3c2CC(C)(C)CC3NC(=O)c2ccoc2C)cc1 (centres undefined),"inconclusive: 79.4 µM [inhibitor, single point]"
6,Oc1ccc(C23CC4CC(CC(C4)C2)C3)cc1O,"inconclusive: 50.1 µM [inhibitor, partial curve]"
7,O=[N+]([O-])c1ccc(O)c(/C=N/Nc2ccc(Cl)nn2)c1,active: 3.98 µM
8,S=c1[nH]nc(-c2cc(-c3ccccc3)n[nH]2)n1/N=C/C=C/c1ccco1,"inconclusive: 25.1 µM [inhibitor, full curve]"
9,Cc1c(Cl)cccc1NC(=S)NNS(=O)(=O)c1ccc([N+](=O)[O-])cc1,"inconclusive: 50.1 µM [inhibitor, partial curve]"
10,NNC(=O)CN1C(c2ccccc2Br)=Nc2ccc(Br)cc2C1c1ccccc1 (centres undefined),"inconclusive: 56.2 µM [inhibitor, partial curve]"
11,CCOC(=O)CN1C(=O)S/C(=C/c2cc(C)n(-c3ccccn3)c2C)C1=O,"inconclusive: 50.1 µM [inhibitor, partial curve]"
12,O=C1C=C(NCc2ccccc2)C2(CCCCC2)O1,"inconclusive: 89.1 µM [inhibitor, single point]"
13,COc1ccc(C(C)n2c(C)c3c(C)nnc(C)c3c2C)cc1 (centres undefined),active: 89.1 µM
14,O=c1[nH]c2ccc(Br)cc2c(-c2ccccc2)c1CN1CCOCC1,inactive
15,O=c1c2ccccc2[nH]c(=S)n1CCN1CCCC1,inactive
16,CO/N=C/c1ccc(N2CCN(C(=O)c3ccc(Cl)cc3Cl)CC2)c([N+](=O)[O-])c1,"inconclusive: 20 µM [inhibitor, partial curve]"
17,Cc1[nH]c2ccccc2c1[C@H]1[C@@H](CC#N)C1(C)C,"inconclusive: 50.1 µM [inhibitor, partial curve]"
18,COc1ccc(N2CCN(C(=O)c3cc(C4CC4)nn3-c3ccccc3)CC2)cc1,active: 44.7 µM
19,O=c1ccc(-c2n[nH]c(=S)n2-c2ccc(F)c(Cl)c2)n[nH]1,"inconclusive: 89.1 µM [inhibitor, single point]"
20,Cc1c(C(=O)Nc2ccc(C(C)C)cc2)sc2nc[nH]c(=O)c12,inactive
21,CN(Cc1ccccc1)C(=O)CCn1c(=O)c2cccn2c2cccnc21,"inconclusive: 89.1 µM [inhibitor, single point]"
22,O=[N+]([O-])c1ccc(N2CCCC2)cc1NC(c1ccccc1)c1ccccc1,"inconclusive: 7.94 µM [inhibitor, full curve, poor fit]"
23,Cc1ccc(NC(=O)C2CCCN2S(=O)(=O)c2cccc3nsnc23)cc1Cl (centres undefined),"inconclusive: 44.7 µM [inhibitor, partial curve]"

row,SMILES,Potency
1,Cc1c(O)c(CN2CCCC2)cc2c3c(c(=O)oc12)CCC3,"inconclusive: 89.1 µM [inhibitor, single point]"
2,COC(=O)CCC(=O)OC1(C)C(=O)C2=CN(CCCOC(C)C)C(c3ccc(OC)cc3)=CC2=C(Br)C1=O (centres undefined),"inconclusive: 70.8 µM [inhibitor, single point]"
3,COc1ccc(OC)c(/C=C/C(=O)OCC(=O)NCc2cccs2)c1,inactive
4,COc1ccc(C(=O)COC(=O)c2ccccn2)cc1OC,"inconclusive: 89.1 µM [inhibitor, single point]"
5,CCN(CC)S(=O)(=O)c1cccc(-c2n[nH]c(=S)n2/N=C/c2ccc(C(=O)OC)cc2)c1,"inconclusive: 31.6 µM [inhibitor, full curve]"
6,Cc1cc(NS(=O)(=O)c2ccc(NC(=O)c3cc(-c4cccnc4)nc4ccc(Cl)cc34)cc2)no1,inactive
7,O=C(Nc1ccc(-c2cn3ccsc3n2)cc1)C1CCCC1,"inconclusive: 79.4 µM [inhibitor, partial curve, poor fit]"
8,Cc1ccc(N2NC(=O)/C(=C/c3ccc(-c4ccc(Cl)c(C(=O)O)c4)o3)C2=O)cc1,"inconclusive: 56.2 µM [inhibitor, partial curve]"
9,O=S(=O)(c1ccccc1)c1nc(-c2ccco2)oc1N1CCCCC1,"inconclusive: 50.1 µM [inhibitor, partial curve]"
10,COc1ccc(CCCc2n[nH]c(=S)o2)cc1,"inconclusive: 63.1 µM [inhibitor, partial curve, poor fit]"
11,CC(NC(=O)c1ccc(Br)s1)c1ccncc1 (centres undefined),"inconclusive: 100 µM [inhibitor, single point]"
12,CCOC(=O)c1ccc(NC(=O)c2csnn2)cc1,inactive
13,CCOC(=O)c1cccc(NC(=O)CCC(=O)N2CC(C)Oc3ccc(C)cc32)c1 (centres undefined),inactive
14,O=C(NC(=S)Nc1cccc2c(O)cccc12)c1cccc(Br)c1,"inconclusive: 50.1 µM [inhibitor, partial curve]"
15,Clc1ccccc1C(c1ccccc1)(c1ccccc1)n1ccnc1,active: 22.4 µM
16,Cc1nc2ccccn2c1/C(O)=C1\C(=O)C(=O)N(CCN2CCOCC2)C1c1ccncc1 (centres undefined),"inconclusive: 50.1 µM [inhibitor, partial curve]"
17,Cc1cccc(Nc2nnc(-c3ccc(N4CCOCC4)c([N+](=O)[O-])c3)c3ccccc23)c1,"inconclusive: 28.2 µM [inhibitor, partial curve]"
18,Cc1cc(NC(=O)Cc2cc(F)cc(F)c2)no1,"inconclusive: 89.1 µM [inhibitor, single point]"
19,NS(=O)(=O)c1ccc(-c2ccc(/C=N/Nc3ccc(C(=O)O)cc3)o2)cc1,inactive
20,COc1ccc(Nc2nnc(SCC(=O)c3cc(C)n(CC4CCCO4)c3C)s2)cc1 (centres undefined),"inconclusive: 35.5 µM [inhibitor, partial curve]"
21,Cc1cccc(C)c1Nc1nnc(SCc2cc([N+](=O)[O-])cc3c2OCOC3)s1,"inconclusive: 12.6 µM [inhibitor, full curve]"
22,CCCCC(=O)NC1=C(C(=O)OC)SCC1,"inconclusive: 44.7 µM [inhibitor, partial curve]"
23,O=C1/C(=C/c2cccs2)SC(=S)N1c1cccc(O)c1,"inconclusive: 20 µM [inhibitor, full curve]"

row,SMILES,Potency
1,COc1ccc(C2CC(=O)N(c3ccccc3)C3=C2C(=O)CCC3)cc1 (centres undefined),inactive
2,CCC1(C(=O)O)NC(c2cc(OC)ccc2O)C2C(=O)N(Cc3ccccc3)C(=O)C21 (centres undefined),"inconclusive: 50.1 µM [inhibitor, partial curve, poor fit]"
3,CC(=O)N1CC(C)Sc2ccc(S(=O)(=O)N3CCCCC3)cc21 (centres undefined),"inconclusive: 89.1 µM [inhibitor, single point]"
4,CCOC(=O)C1CCCN(Cc2nc(N)nc(Nc3ccc(OC)cc3)n2)C1 (centres undefined),"inconclusive: 79.4 µM [inhibitor, single point]"
5,COc1cc(NC(=O)COC(=O)c2cnccn2)c(C)cc1[N+](=O)[O-],inactive
6,CC(Nc1ccc2c(c1)OCCO2)C(=O)N1CCc2ccccc21 (centres undefined),active: 44.7 µM
7,CCN(CC)c1ccc(/C=N/N=C(N)N)c(O)c1,inactive
8,COc1ccc(-c2nc(Cn3c(SCc4ccccc4F)nc4ccncc43)c(C)o2)cc1OC,inactive
9,CN(Cc1ccccc1)C(=O)C1CCN(S(=O)(=O)c2ccc3nc4c(c(C(=O)O)c3c2)CCCC4)CC1,active: 50.1 µM
10,COc1ccc(N2CCCC2)c(NC(=O)c2ccc([N+](=O)[O-])o2)c1,active: 14.1 µM
11,CC(=O)Nc1ccc(S(=O)(=O)Nc2ccn(Cc3ccccc3Cl)n2)cc1,"inconclusive: 79.4 µM [inhibitor, partial curve]"
12,O=C(NC(=S)Nc1cccc([N+](=O)[O-])c1)C1CCCC1,"inconclusive: 79.4 µM [inhibitor, single point]"
13,COc1ccc2c(c1)[nH]c1c(N3CCSCC3)ncnc12,"inconclusive: 79.4 µM [inhibitor, single point]"
14,C=CCn1c(C)cc(C(=O)COC(=O)[C@@H](NC(=O)c2ccccc2Cl)C(C)C)c1C,"inconclusive: 89.1 µM [inhibitor, single point]"
15,C/C(=N\NC(=O)c1ccccc1C)c1ccc(NC(=O)c2cccs2)cc1,"inconclusive: 89.1 µM [inhibitor, partial curve, poor fit]"
16,Nc1nc(NC(=O)c2ccc(Cl)cc2)nn1-c1ccccc1,"inconclusive: 89.1 µM [inhibitor, single point]"
17,COc1ccc(S(=O)(=O)N2CCOC2CNC(=O)C(=O)NCCN2CCOCC2)cc1OC (centres undefined),inactive
18,COc1ccccc1Cn1c(CCCO)nc2ccccc21,"inconclusive: 89.1 µM [inhibitor, single point]"
19,Cc1cc(C(=O)NP(=O)(N2CC(C)OC(C)C2)N2CC(C)OC(C)C2)c(C)n1C1CC1 (centres undefined),"inconclusive: 79.4 µM [inhibitor, single point]"
20,CCOc1ccc(C(C)=O)cc1N1C(=O)C2C(C1=O)C1C=CC2C12CC2 (centres undefined),active: 50.1 µM
21,Cc1cccc(NC(=O)c2oc3ccccc3c2NC(=O)c2cc(=O)c3cc(Cl)ccc3o2)c1,inactive
22,O=C(NC(=S)NCCOCc1ccc(Cl)cc1)c1cccnc1,inactive
23,COc1ccc(CNC(=O)C2CCCN2)cc1OC (centres undefined),active: 44.7 µM
